Results as given in PMC4336329 (PLoS ONE, 2015).
Screen size: about 310,000 compounds; about 14,000 (4.5%) showed an effect of 50% or more. The effect is printed as a negative number. This is one part of the list.

molecular target: human ether-à-go-go-related gene (hERG) potassium channel (human, UniProt Q12809); assay: primary screen, population patch clamp on CHO cells stably expressing hERG
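Note: peak tail current of the secondary pulse compared with the same well before compound.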

Chain of human ether-à-go-go-related gene (hERG) potassium channel (Q12809 whole entry, looked up): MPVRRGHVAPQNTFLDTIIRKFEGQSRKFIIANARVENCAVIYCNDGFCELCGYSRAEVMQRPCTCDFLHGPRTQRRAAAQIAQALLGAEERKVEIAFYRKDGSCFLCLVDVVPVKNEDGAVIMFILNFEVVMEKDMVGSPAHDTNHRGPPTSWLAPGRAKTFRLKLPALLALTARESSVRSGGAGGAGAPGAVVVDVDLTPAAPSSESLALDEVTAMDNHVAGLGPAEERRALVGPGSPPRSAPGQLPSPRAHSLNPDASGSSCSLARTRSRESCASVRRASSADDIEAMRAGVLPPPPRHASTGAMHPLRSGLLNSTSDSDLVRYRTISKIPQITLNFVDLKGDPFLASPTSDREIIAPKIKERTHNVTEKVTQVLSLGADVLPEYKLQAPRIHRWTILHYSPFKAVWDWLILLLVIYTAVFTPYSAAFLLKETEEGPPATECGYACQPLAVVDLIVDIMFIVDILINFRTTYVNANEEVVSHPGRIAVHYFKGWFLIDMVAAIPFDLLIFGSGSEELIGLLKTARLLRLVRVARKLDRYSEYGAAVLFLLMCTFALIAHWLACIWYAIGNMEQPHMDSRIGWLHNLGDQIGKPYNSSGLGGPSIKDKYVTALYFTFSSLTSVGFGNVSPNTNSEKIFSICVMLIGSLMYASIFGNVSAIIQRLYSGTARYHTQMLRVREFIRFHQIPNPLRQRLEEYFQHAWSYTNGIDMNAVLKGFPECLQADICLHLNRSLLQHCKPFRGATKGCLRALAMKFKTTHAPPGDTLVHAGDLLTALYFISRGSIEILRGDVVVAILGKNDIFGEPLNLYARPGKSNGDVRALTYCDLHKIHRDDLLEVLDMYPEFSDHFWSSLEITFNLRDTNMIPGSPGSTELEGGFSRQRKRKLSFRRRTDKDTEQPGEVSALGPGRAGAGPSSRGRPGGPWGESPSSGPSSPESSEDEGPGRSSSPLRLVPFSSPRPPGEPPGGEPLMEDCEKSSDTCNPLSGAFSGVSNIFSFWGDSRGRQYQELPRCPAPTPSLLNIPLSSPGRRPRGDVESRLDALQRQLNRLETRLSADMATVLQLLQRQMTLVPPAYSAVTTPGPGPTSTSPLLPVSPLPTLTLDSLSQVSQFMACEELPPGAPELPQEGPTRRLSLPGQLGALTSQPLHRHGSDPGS

Structure (SMILES)	hERG current change (%, negative = inhibition) at 10uM
O=C1c2ccccc2C(Nc2ccc(S(=O)(=O)N3CCCCCC3)cc2)N1Cc1ccco1 (stereo not drawn)	-19.5%
Cc1csc(SCC(=O)NC(=O)Cc2ccccc2)n1	16.9%
O=[N+]([O-])c1cc(S(=O)(=O)Nc2cccc(Cl)c2)ccc1N/N=C/c1ccc(N2CCOCC2)cc1	-5.9%
CCc1nnc(NC(=O)CSc2nnc(COc3ccc(C)cc3)n2-c2ccccc2)s1	-1.92%
CCNC(=O)N(CCOC)CC1CCCN(C2Cc3ccccc3C2)C1 (stereo not drawn)	-22.9%
COc1cccc(N(CC(=O)N2CCN(C)CC2)S(=O)(=O)c2ccccc2)c1	-7.6%
C=CCN(C(=O)CN1CCCCC1)c1nc(-c2ccccc2)cs1	-7.36%
NC(=O)CCc1nc2cc(C(F)(F)F)ccc2n(Cc2ccccc2)c1=O	-19.4%
O=C(C[N+]12CCC(CC1)C(O)C2)c1ccc(Br)cc1.[Br-] (stereo not drawn)	1.74%
COc1cc(NC(=O)COc2cccc(OC)c2)cc(OC)c1	-9.09%
Cc1ccccc1C(=O)O/N=C1\CCS(=O)(=O)c2sccc21	8.17%
COc1ccc(C(CNC(=O)Cc2ccccc2Cl)N2CCCCC2)cc1 (stereo not drawn)	23%
COc1ccc(CN(CC(=O)NCc2ccccc2)C(=O)CCC(=O)Nc2cc(C)ccn2)cc1	-17.2%
COc1ccccc1-c1noc2ncnc(Nc3cccc(C)c3C)c12	-4.27%
O=C(O)c1ccccc1OCC1CCCO1 (stereo not drawn)	20.8%
O=C(Nc1ccc(F)cc1F)c1ccc(-n2cncn2)nc1	-6.88%
Cc1ccc(C(C)C)c(OC/C(O)=C(\C#N)c2nc3ccccc3[nH]2)c1	-15.7%
CC1CCN(C(=O)C2CCCCN2S(=O)(=O)c2cccc([N+](=O)[O-])c2)CC1 (stereo not drawn)	1.35%
COc1ccc(S(=O)(=O)N(CC(=O)NC2CCCCC2)c2ccc(F)cc2)cc1	17.2%
CCC(C)c1ccc(OCC(=O)Nc2ccc(Cl)cn2)cc1 (stereo not drawn)	-0.19%
CCn1cc(C(=O)NCc2ccco2)c(=O)c2cc(F)c(N3CCN(C(=O)c4ccco4)CC3)cc21	-26.4%
O=C(NC1CCN(C(=O)N2c3ccccc3Sc3ccccc32)CC1)c1ccccc1F	6.04%

Structure (SMILES)	hERG current change (%, negative = inhibition) at 10uM
CCCc1cc2c(cc1NC(=O)c1ccccc1F)OCO2	-11.3%
Cc1ccccc1NCc1ccc(O)c2ncccc12	5.62%
CCOc1ccc(C(=O)NCc2ccco2)cc1OC	10.3%
Cc1nn(C)c(C)c1S(=O)(=O)N1CCCC(C(=O)N2CCN(c3ccc(Cl)cc3)CC2)C1 (stereo not drawn)	-70.4%
CCc1ccccc1NC(=O)CCOc1ccccc1	9.95%
Cc1ccccc1OC(C)C(=O)NCCC1=CCCCC1 (stereo not drawn)	-1.85%
NC(=O)N/N=C/c1cn(-c2ccccc2)nc1-c1ccccc1	-6.63%
CCC(=O)Nc1ccc2nc(C)n(Cc3ccccc3Cl)c(=O)c2c1	-0.491%
Cc1c(CCC(=O)O)c(=O)oc2cc3occ(C(C)(C)C)c3cc12	0.152%
COc1ccc(N2CCN(C(=O)Cn3nnc(-c4ccccc4N)n3)CC2)cc1	-2.95%
Cn1c(=O)c2c(ncn2CC(=O)OCC(=O)NC(c2ccccc2)c2ccccc2)n(C)c1=O	-2.22%
CCOc1ccc2nc(COC(=O)c3ccncc3)c(C(=O)c3ccccc3)[n+]([O-])c2c1	2.8%
O=C(Cn1cnc([N+](=O)[O-])n1)N/N=C/c1ccc2ccccc2c1	13.3%
COc1cc(NC(=O)CCN2CCN(C)CC2)cc(OC)c1	14.4%
Cc1cc(=O)oc2cc(OCC(=O)NCc3ccco3)ccc12	-6.81%
Cl.NCCCCCC(=O)N/N=C/c1coc2ccccc2c1=O	5.41%
CC(NC(=O)CSc1nnc(-c2cc3cc(Cl)ccc3o2)n1C)c1ccccc1 (stereo not drawn)	-12%
CC(C)CCNC(=O)c1ccc(C2SCC(=O)N2Cc2ccco2)cc1 (stereo not drawn)	-20.4%
O=C(COC(=O)c1ccc(O)cc1O)Nc1cc(-c2ccccc2)nn1-c1ccccc1	-9.42%
COc1ccc2[nH]c(C)c(CN3CCC(C)CC3)c(=O)c2c1	-44%
O=C(c1ccc(Br)s1)N1CCN(c2ncccn2)CC1	-20.3%
O=C(NCCc1ccccc1)C1(c2ccccc2)CC1(Cl)Cl (stereo not drawn)	7.92%

Structure (SMILES)	hERG current change (%, negative = inhibition) at 10uM
COc1cc(N=CC2=C(O)c3ccccc3C2=O)cc(OC)c1	8.36%
COc1ccc(C(=O)CSc2nnc(-c3ccco3)n2CC2CCCO2)cc1 (stereo not drawn)	-11.4%
COc1ccc(N(C(=O)Cn2nnc3ccccc32)C2(C(=O)NC3CCCC3)CCCCC2)cc1	-36.9%
COc1cccc(CNC(=O)CCS(=O)(=O)Cc2ccc(C)cc2)c1	27%
COCCCNC(=O)Cn1ncc2c(=O)oc3ccccc3c21	0.241%
CC(C)C[C@@H](CSc1ccc(Br)cc1)N1CCN(C)CCC1=O	-64.7%
COc1ccc(-c2csc(NC(CO)c3nc4ccccc4n3CCOCCO)n2)cc1 (stereo not drawn)	-43.3%
O=C(O)c1cc(-c2ccccc2)n(-c2ccc(Cl)cc2Cl)n1	21.5%
O=C(CN(C1CCCCC1)S(=O)(=O)c1ccc(Cl)cc1)NCc1cccnc1	-74.4%
C=CCNC(=O)CN1CCC(c2nc3ccccc3[nH]2)CC1	7.7%
COc1ccccc1C=NC(CO)C(O)c1ccc([N+](=O)[O-])cc1 (stereo not drawn)	-0.196%
COC(=O)Nc1nnc(Cc2ccc(Cl)cc2)s1	-7.28%
COC(=O)CC(NC(=O)CN1CCN(c2ccc(F)cc2)CC1)c1cccc(F)c1 (stereo not drawn)	-43.9%
Cc1ccc(S(=O)(=O)N2CCN(c3ccccc3)CC2)cc1C(=O)NC1CCCCC1	-0.43%
COc1ccc(CCC(=O)Nc2cnc3ccccc3c2)cc1	-13%
O=C(NCCCn1ccnc1)/C(=C/c1ccc(Cl)cc1)NC(=O)c1ccccc1	-74.7%
CCOC(=O)c1nn(-c2ccccc2C)c(=O)cc1OCC(=O)Nc1cccc(OC)c1	13.2%
Cc1ccc(NC(=O)CCCCCN2C(=O)[C@@H]3Cc4ccccc4CN3C2=O)c(C)c1	2.68%
O=C(CN1CC(=O)Oc2ccccc21)OCC(=O)c1ccc(Br)cc1	14.7%
Cl.Fc1cccc(Nc2ncnc3sc4c(c23)CCC4)c1	-19.2%
COc1cc(C2c3c([nH]c(=O)[nH]c3=O)Nc3ccc4ccccc4c32)cc(OC)c1OC (stereo not drawn)	11%
CN(CC(=O)N1CCN(c2ccc(F)cc2)CC1)S(=O)(=O)c1ccc(F)cc1	-53.2%

Structure (SMILES)	hERG current change (%, negative = inhibition) at 10uM
CCC(C)Nc1nc2c(c(=O)[nH]c(=O)n2C)n1CCOc1ccccc1 (stereo not drawn)	-24.9%
O=C(NCC1CCCO1)c1ccc(C(=O)NCC2CCCO2)cc1 (stereo not drawn)	0.974%
O=C(Nc1cccc(NC(=O)c2ccco2)c1)c1ccc2c(c1)OCO2	-37.5%
C#CCOC(=O)c1ccc(-n2cncn2)nc1	-0.64%
Cc1ccc2[nH]c(C)c(CCNC(=O)c3c(N)no[n+]3[O-])c2c1	10.1%
O=C(CCn1c(=O)[nH]c2ccsc2c1=O)NCCc1ccc(Cl)cc1	-0.226%
CCOC(=O)c1nn2c(C(F)(F)F)cc(-c3ccc(OC)cc3)nc2c1Br	21%
O=C(NCCCn1ccnc1)/C(=C/c1ccc(F)cc1)NC(=O)c1ccccc1	-75.6%
CC12CCC(=O)N1c1c(sc3nc(N4CCOCC4)c4c(c13)CCCC4)C(=O)N2 (stereo not drawn)	-37.4%
CN(C)CCCNC(=O)c1cc2c3ccccc3n(C)c2s1	-40.1%
COc1ccccc1-c1nn2c(-c3ccco3)nnc2s1	-5.22%
COc1ccc(CCNc2nc(-c3cccnc3)cs2)cc1OC	10.7%
CCN1CCN(C(=S)c2ccc(SC)cc2)CC1	-42.9%
COC(=O)c1c(NC(=O)CN2C(=O)NC3(CCCCC3C)C2=O)sc2c1CCC2 (stereo not drawn)	-25.7%
O=C(Nc1cc(S(=O)(=O)N2CCCCCC2)ccc1OCC(F)(F)F)c1ccc(=O)[nH]c1	-22.1%
Cc1cc(NC(=O)c2cc3n(n2)C(C(F)(F)F)CC(c2ccco2)N3)no1 (stereo not drawn)	4.63%
COC(=O)[C@H](C)NC(=O)COc1ccccc1	-15.1%
Cc1cnc(C(=O)OCC(=O)Nc2ccc(Cl)cc2Cl)cn1	-5.56%
CCOC(=O)/C(=N\Nc1cccc(C(F)(F)F)c1)N(CCOC)CCOC	-14.6%
Cc1ccc(Cn2ccc(NC(=O)c3noc4c3CCc3ccccc3-4)n2)cc1	21.5%
O=C(CSc1nc2ccccc2c(=O)n1CCC(=O)N1CCCCC1)NCc1ccccc1	-70.4%
